Screen size: about 39,000 compounds; about 220 (0.56%) showed activity. The list shows a part of the results.
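Further: static incubation at 37 °C against the wild-type strain, values averaged over two biological replicates.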

This test has as its system Escherichia coli K-12 BW25113. The experiment in a line: relative growth (OD600 normalised to plate interquartile mean) (fraction); higher = less growth inhibition, active = 0.2 or less. To be noted: 50 µM; LB; incubation time: overnight (16-24 h).
As to `C[C@H](CO)N1C[C@H](C)[C@H](CN(C)C(=O)Nc2cccc3ccccc23)Oc2ccc(NC(=O)NC3CCCCC3)cc2C1=O`, the relative growth was inactive: 1.04.

For `COCC#Cc1cnc2c(c1)C(=O)N([C@@H](C)CO)C[C@H](C)[C@@H](CN(C)S(=O)(=O)c1cn(C)cn1)O2`, the relative growth was inactive: 1.

Regarding `C[C@H](CO)N1C[C@H](C)[C@H](CN(C)S(=O)(=O)c2ccc(F)cc2)OCCCC[C@H](C)Oc2ccc(NC(=O)Cc3ccccc3)cc2C1=O`, the relative growth is inactive: 1.05.

Turning to `CN(C)CCCNC(=O)C[C@@H]1C=C[C@@H](NS(=O)(=O)c2ccccc2)[C@H](CO)O1`, the relative growth is inactive: 1.

On to `Cc1noc(C)c1S(=O)(=O)N(C)C[C@@H]1OCCCC[C@H](C)Oc2ccc(NC(=O)Nc3ccc(C(F)(F)F)cc3)cc2C(=O)N([C@H](C)CO)C[C@@H]1C`, for which the relative growth is inactive: 0.968.

As to `C[C@@H]1CCCCO[C@@H](CN(C)C(=O)Nc2ccc3c(c2)OCO3)[C@H](C)CN([C@H](C)CO)C(=O)c2cc(NC(=O)Nc3ccc(F)cc3)ccc2O1`, the relative growth was inactive: 1.02.

Take `CCOC(=O)CCCCCC(=O)Nc1ccc2c(c1)C(=O)N([C@@H](C)CO)C[C@@H](C)[C@H](CN(C)C(=O)c1ccncc1)OCCCC[C@H](C)O2`: the relative growth was inactive: 0.992.

As for `C[C@@H]1CCCCO[C@@H](CN(C)S(=O)(=O)c2cn(C)cn2)[C@H](C)CN([C@@H](C)CO)C(=O)c2cc(NS(=O)(=O)c3cccs3)ccc2O1`, the relative growth is inactive: 0.992.

For `C[C@@H]1CCCCO[C@H](CN(C)C(=O)Nc2ccc3c(c2)OCO3)[C@H](C)CN([C@H](C)CO)C(=O)c2cc(NS(=O)(=O)c3cccs3)ccc2O1`, the relative growth is inactive: 1.03.

On to `Cc1ccc(S(=O)(=O)Nc2cccc3c2O[C@H](CN(C)CC2CC2)[C@@H](C)CN([C@H](C)CO)C3=O)cc1`, for which the relative growth was inactive: 0.989.

Take `COc1ccc(C(=O)Nc2ccc3c(c2)C(=O)N(C)[C@@H]2CC[C@H](CC(=O)NCC4CC4)O[C@@H]2CO3)cc1`: the relative growth is inactive: 0.982.

As to `C[C@H]1CN([C@@H](C)CO)C(=O)c2cc(NS(=O)(=O)c3cccs3)ccc2O[C@H]1CN(C)S(=O)(=O)c1ccc(F)cc1`, the relative growth is inactive: 0.921.

For the molecule `Cc1ccc(S(=O)(=O)N(C)C[C@@H]2OCCCC[C@H](C)Oc3ccc(NS(=O)(=O)c4ccc(F)cc4)cc3C(=O)N([C@H](C)CO)C[C@H]2C)cc1`, the relative growth is inactive: 1.01.

As to `C[C@H]1CN([C@@H](C)CO)C(=O)Cc2cc(NC(=O)Nc3ccc(C(F)(F)F)cc3)ccc2O[C@@H]1CN(C)Cc1ccncc1`, the relative growth was inactive: 1.

For the molecule `CC(C)Cn1cnc2c1c(=O)n(C)c(=O)n2C`, the relative growth is inactive: 0.964.

Take `CC(C)CC#Cc1cnc2c(c1)C(=O)N([C@H](C)CO)C[C@H](C)[C@@H](CN(C)C(=O)c1ccc3c(c1)OCO3)O2`: the relative growth is inactive: 0.987.

Consider `COc1ccc2c3c(n(c2c1)C)[C@@H](CO)N(C[C@]13CCN(CC1)C(=O)Nc1cccc(c1)F)S(=O)(=O)C`, for which the relative growth was inactive: 0.991.

For `C[C@@H]1CN([C@H](C)CO)C(=O)c2c(c3ccccc3n2C)-c2ccccc2CO[C@@H]1CN(C)Cc1ccccc1C(F)(F)F`, the relative growth was inactive: 0.979.

In the case of `COc1ccc(S(=O)(=O)Nc2ccc3c(c2)C(=O)N([C@H](C)CO)C[C@@H](C)[C@H](CN(C)C(=O)Nc2cccc4ccccc24)OCCCC[C@@H](C)O3)cc1`, the relative growth is inactive: 0.993.

Take `COc1ccc(NC(=O)Nc2ccc3c(c2)C(=O)N([C@@H](C)CO)C[C@H](C)[C@H](CN(C)C(=O)Nc2ccc(C(F)(F)F)cc2)OCCCC[C@H](C)O3)cc1`: the relative growth is inactive: 0.973.

Regarding `C[C@@H]1CN([C@H](C)CO)C(=O)c2cc(NS(C)(=O)=O)ccc2O[C@@H](C)CCCCO[C@H]1CN(C)Cc1ccc(Cl)c(Cl)c1`, the relative growth was inactive: 0.987.

For `C[C@@H]1CN([C@@H](C)CO)C(=O)c2cc(NC(=O)Nc3cccc4ccccc34)ccc2O[C@@H]1CN(C)S(=O)(=O)c1ccc(F)cc1`, the relative growth was inactive: 0.949.

With `CC(C)(O)c1ccccc1CC[C@@H](SCC1(CC(=O)O)CC1)c1cccc(/C=C/c2ccc3ccc(Cl)cc3n2)c1`, the relative growth was inactive: 1.15.

As to `O=C(C[C@@H]1C=C[C@H](NC(=O)c2cccc(F)c2)[C@@H](CO)O1)NCCN1CCCC1`, the relative growth is inactive: 0.965.

Turning to `C[C@@H]1CCCCO[C@@H](CN(C)C(=O)Nc2ccccc2)[C@@H](C)CN([C@@H](C)CO)C(=O)c2cc(NC(=O)Nc3ccc(F)cc3)ccc2O1`, the relative growth was inactive: 1.01.

For the molecule `COc1ccccc1CNC(=O)C[C@@H]1C[C@@H]2c3cc(NS(=O)(=O)c4ccc(F)cc4)ccc3O[C@@H]2[C@H](CO)O1`, the relative growth is inactive: 0.99.

As to `C[C@H]1CN([C@@H](C)CO)C(=O)c2cc(C#CC3(O)CCCC3)cnc2O[C@H]1CN(C)C(=O)Cc1ccccc1`, the relative growth was inactive: 0.985.

For the molecule `C[C@@H]1CN([C@@H](C)CO)C(=O)Cc2cc(NS(=O)(=O)c3cn(C)cn3)ccc2O[C@H]1CN(C)S(=O)(=O)c1ccccc1`, the relative growth is inactive: 1.01.

As to `O=C(C[C@H]1CC[C@@H](NS(=O)(=O)c2ccccc2)[C@H](CO)O1)NCc1ccncn1`, the relative growth was inactive: 1.01.

On to `C[C@@H]1CCCCO[C@@H](CN(C)C(=O)NC2CCCCC2)[C@H](C)CN([C@H](C)CO)C(=O)c2cc(NC(=O)Nc3ccc4c(c3)OCO4)ccc2O1`, for which the relative growth was inactive: 1.02.

On to `COc1ccc(NC(=O)Nc2ccc3c(c2)C(=O)N([C@@H](C)CO)C[C@H](C)[C@H](CN(C)C(=O)Nc2ccc4c(c2)OCO4)OCCCC[C@@H](C)O3)cc1`, for which the relative growth is inactive: 1.04.

Regarding `C[C@@H]1CCCCO[C@H](CN(C)Cc2ccncc2)[C@@H](C)CN([C@H](C)CO)C(=O)c2cc(NC(=O)Nc3ccc(F)cc3)ccc2O1`, the relative growth is inactive: 0.994.

With `C[C@H](CO)N1C[C@H](C)[C@@H](CN(C)C(=O)Nc2ccccc2)Oc2cc(C#CC3(O)CCCC3)ccc2S1(=O)=O`, the relative growth is inactive: 1.02.

As to `CC(C)C[C@@H]1NC(=O)[C@H]2C[C@@H](C(=O)NCCCCCCNC(=O)CS)[C@@H](c3ccc(O)cc3)N2C1=O`, the relative growth was inactive: 1.01.

`C[C@H]1CN([C@@H](C)CO)C(=O)c2cc(NC(=O)CCCN(C)C)ccc2O[C@H]1CN(C)C(=O)Nc1ccccc1`: the relative growth was inactive: 0.992.
